The source of these data is the supplement of paper PMC4967469.

Lines with a small IC50 respond at low doses; a limit (>, <) means that the fit lies beyond the doses tested. AUC sums up the same curve from the lowest dose to the 256-fold higher top dose: 1 means no effect, lower means more sensitive. A value given as a limit tells only on which side of the number the result lay.

Compound in the test: CC[C@H](Nc1ncnc2[nH]cnc12)c1nc2cccc(F)c2c(=O)n1-c1ccccc1 [CAL-101]
The test is described as follows: Viability of human cancer cell lines after 72 h of drug (GDSC screen). As to the method:
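Human cancer cell lines in 384-well plates, medium with 10% serum, drug for 72 h over a 256-fold dose range (nine 2-fold or five 4-fold steps up to the top dose). Adherent lines were fixed and stained with the nucleic acid dye Syto60, suspension lines read with resazurin; signal relative to control wells, capped at 0 and 100%. One two-parameter sigmoid per drug and line, fitted in a mixed model over all curves with the slope shared within a line.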

Regarding NEC8 (testis, adherent, top dose 20 µM), the AUC stood at 0.991 and the IC50 (in general, the point on the concentration scale where inhibition reaches its midpoint) was over 20 µM.
With “NH-12 (neuroblastoma, adherent, top dose 20 µM)”, the AUC amounted to 0.941 and the IC50 was over 20 µM.
The like results for “NKM-1 (acute myeloid leukaemia, suspension, top dose 20 µM)” were, in that order, 0.599 and 2.35 µM.
In the case of “NMC-G1 (glioma, adherent, top dose 20 µM)”, the AUC turned out to be 0.901 and the IC50 was over 20 µM.
As to “NOMO-1 (acute myeloid leukaemia, suspension, top dose 20 µM)”, the AUC amounted to 0.805 and the IC50 came out at 11.8 µM.
Take “NOS-1 (osteosarcoma, adherent, top dose 20 µM)”: the AUC worked out at 0.772 and the IC50 amounted to 9.58 µM.
On to “NTERA-2 cl.D1 (testis, adherent, top dose 20 µM)”, for which the AUC came out at 0.946 and the IC50 is over 20 µM.
On to “NU-DUL-1 (B-cell lymphoma, suspension, top dose 20 µM)”, for which the AUC turned out to be 0.091 and the IC50 stood at 0.0854 µM.
The like results for “NUGC-3 (stomach, adherent, top dose 20 µM)” were, in that order, 0.97 and over 20 µM.
For the cell line “NUGC-4 (stomach, adherent, top dose 20 µM)”, the AUC was 0.988 and the IC50 is over 20 µM.
Consider “NY (osteosarcoma, adherent, top dose 20 µM)”, for which the AUC was found to be 0.987 and the IC50 is over 20 µM.
The corresponding values for “OACM5-1 (oesophagus, semi-adherent, top dose 20 µM)” are 0.875 and over 20 µM.
As for “OACp4C (oesophagus, adherent, top dose 20 µM)”, the AUC is 0.883 and the IC50 is over 20 µM.
The corresponding values for “OAW-28 (ovary, adherent, top dose 20 µM)” are 0.876 and over 20 µM.
As to “OAW-42 (ovary, adherent, top dose 20 µM)”, the AUC was 0.92 and the IC50 was over 20 µM.
Turning to “OC-314 (ovary, adherent, top dose 20 µM)”, the AUC worked out at 0.959 and the IC50 was over 20 µM.
On to “OCI-AML2 (acute myeloid leukaemia, suspension, top dose 20 µM)”, for which the AUC stood at 0.982 and the IC50 is over 20 µM.
The corresponding values for “OCI-AML3 (acute myeloid leukaemia, suspension, top dose 20 µM)” are 0.782 and 7.12 µM.
The corresponding values for “OCI-AML5 (acute myeloid leukaemia, suspension, top dose 20 µM)” are 0.81 and 9.4 µM.
Regarding “OCI-LY-19 (B-cell lymphoma, suspension, top dose 20 µM)”, the AUC is 0.817 and the IC50 turned out to be 10.1 µM.
Take “OCI-M1 (acute myeloid leukaemia, suspension, top dose 20 µM)”: the AUC was found to be 0.839 and the IC50 came to 9.23 µM.
The like results for “OCUB-M (breast, adherent, top dose 20 µM)” were, in that order, 0.954 and over 20 µM.
As to “OCUM-1 (stomach, adherent, top dose 20 µM)”, the AUC was determined as 0.987 and the IC50 is over 20 µM.
The like results for “OE19 (oesophagus, adherent, top dose 20 µM)” were, in that order, 0.986 and over 20 µM.
Consider “OE21 (oesophagus, adherent, top dose 20 µM)”, for which the AUC amounted to 0.978 and the IC50 is over 20 µM.
Regarding “OE33 (oesophagus, adherent, top dose 20 µM)”, the AUC was determined as 0.947 and the IC50 was over 20 µM.
The like results for “OMC-1 (cervix, adherent, top dose 20 µM)” were, in that order, 0.977 and over 20 µM.
Turning to “ONS-76 (medulloblastoma, adherent, top dose 20 µM)”, the AUC came out at 0.96 and the IC50 was over 20 µM.
The like results for “OPM-2 (myeloma, suspension, top dose 20 µM)” were, in that order, 0.962 and over 20 µM.
In the case of “OS-RC-2 (kidney, adherent, top dose 20 µM)”, the AUC came out at 0.808 and the IC50 turned out to be 16.7 µM.
The like results for “OSC-19 (head and neck, adherent, top dose 20 µM)” were, in that order, 0.936 and over 20 µM.
Take “OSC-20 (head and neck, adherent, top dose 20 µM)”: the AUC is 0.953 and the IC50 was over 20 µM.
With OV-7 (ovary, adherent, top dose 20 µM), the AUC is 0.869 and the IC50 is over 20 µM.
In the case of “OV-17R (ovary, adherent, top dose 20 µM)”, the AUC came to 0.844 and the IC50 is over 20 µM.
As to OV-56 (ovary, adherent, top dose 20 µM), the AUC came out at 0.976 and the IC50 was over 20 µM.
On to OV-90 (ovary, adherent, top dose 20 µM), for which the AUC was 0.981 and the IC50 is over 20 µM.
The like results for “OVCA420 (ovary, adherent, top dose 20 µM)” were, in that order, 0.972 and over 20 µM.
Take “OVCA433 (ovary, adherent, top dose 20 µM)”: the AUC is 0.967 and the IC50 was over 20 µM.
The corresponding values for “OVCAR-3 (ovary, adherent, top dose 20 µM)” are 0.979 and over 20 µM.
“OVCAR-4 (ovary, adherent, top dose 20 µM)”: the AUC was determined as 0.947 and the IC50 is over 20 µM.
On to “OVCAR-5 (ovary, adherent, top dose 20 µM)”, for which the AUC was determined as 0.95 and the half-maximal inhibitory concentration (IC50) is over 20 µM.
Regarding “OVCAR-8 (ovary, adherent, top dose 20 µM)”, the AUC is 0.955 and the IC50 was over 20 µM.
For the cell line OVISE (ovary, adherent, top dose 20 µM), the AUC turned out to be 0.912 and the IC50 is over 20 µM.
The like results for “OVK-18 (ovary, adherent, top dose 20 µM)” were, in that order, 0.986 and over 20 µM.
Turning to “OVKATE (ovary, adherent, top dose 20 µM)”, the AUC is 0.925 and the IC50 is over 20 µM.
Regarding OVMIU (ovary, adherent, top dose 20 µM), the AUC was 0.874 and the IC50 was over 20 µM.
Regarding “OVTOKO (ovary, adherent, top dose 20 µM)”, the AUC is 0.889 and the IC50 is over 20 µM.
Turning to “P12-ICHIKAWA (T-cell lymphoblastic leukaemia, suspension, top dose 20 µM)”, the AUC stood at 0.771 and the half-maximal inhibitory concentration (IC50) is 6.03 µM.
Consider “P30-OHK (lymphoblastic leukaemia, suspension, top dose 20 µM)”, for which the AUC came to 0.595 and the IC50 came out at 2.17 µM.
The like results for “P31-FUJ (acute myeloid leukaemia, suspension, top dose 20 µM)” were, in that order, 0.995 and over 20 µM.
The like results for “P32-ISH (Burkitt lymphoma, suspension, top dose 20 µM)” were, in that order, 0.931 and 19.1 µM.
Consider PA-1 (ovary, adherent, top dose 20 µM), for which the AUC was determined as 0.908 and the IC50 was determined as 17 µM.
Turning to “PA-TU-8902 (pancreas, adherent, top dose 20 µM)”, the AUC was 0.968 and the IC50 is over 20 µM.
Consider “PA-TU-8988T (pancreas, adherent, top dose 20 µM)”, for which the AUC was 0.969 and the IC50 was over 20 µM.
The like results for “PANC-02-03 (pancreas, adherent, top dose 20 µM)” were, in that order, 0.952 and over 20 µM.
As to “PANC-03-27 (pancreas, adherent, top dose 20 µM)”, the AUC is 0.899 and the IC50 is over 20 µM.
“PANC-04-03 (pancreas, adherent, top dose 20 µM)”: the AUC was found to be 0.972 and the IC50 is over 20 µM.
Regarding “PANC-08-13 (pancreas, adherent, top dose 20 µM)”, the AUC came to 0.904 and the IC50 was over 20 µM.
Consider “PANC-10-05 (pancreas, adherent, top dose 20 µM)”, for which the AUC turned out to be 0.836 and the IC50 came to 19.1 µM.
For the cell line “PC-3 [JPC-3] (lung adenocarcinoma, adherent, top dose 20 µM)”, the AUC is 0.924 and the IC50 is over 20 µM.
Take “PC-14 (lung adenocarcinoma, adherent, top dose 20 µM)”: the AUC was determined as 0.985 and the IC50 was over 20 µM.
Turning to “PCI-4B (head and neck, adherent, top dose 20 µM)”, the AUC was found to be 0.975 and the IC50 was over 20 µM.
Consider “PCI-6A (head and neck, adherent, top dose 20 µM)”, for which the AUC came out at 0.98 and the IC50 was over 20 µM.
Turning to “PCI-15A (head and neck, adherent, top dose 20 µM)”, the AUC was 0.975 and the IC50 is over 20 µM.
As for “PCI-30 (head and neck, adherent, top dose 20 µM)”, the AUC was 0.98 and the IC50 was over 20 µM.
As to “PCI-38 (head and neck, adherent, top dose 20 µM)”, the AUC came out at 0.983 and the IC50 was over 20 µM.
Take “PE/CA-PJ15 (head and neck, adherent, top dose 20 µM)”: the AUC was 0.96 and the IC50 was over 20 µM.
Take PEO1 (ovary, adherent, top dose 20 µM): the AUC was 0.957 and the IC50 is over 20 µM.
